Measured values: publication PMC6919601, “Identification of Plasmodium dipeptidyl aminopeptidase allosteric inhibitors by high throughput screening” (PLoS ONE, 2019)
Screen size: about 110,000 compounds; about 230 (0.21%) showed an effect of 50% or more. Some of the results follow.

These compounds were tested against DPAP1 (Plasmodium falciparum, UniProt Q8IIJ9) (assay: primary screen, percent inhibition; read by cleavage of a fluorogenic dipeptide substrate; higher = more effect of the substance).
Set-up: species or system P. falciparum D10 trophozoite lysates; single well
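Further: 30 min substrate incubation versus DMSO and 10 µM JCP410 controls.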

DPAP1, sequence (Q8IIJ9 whole entry, looked up): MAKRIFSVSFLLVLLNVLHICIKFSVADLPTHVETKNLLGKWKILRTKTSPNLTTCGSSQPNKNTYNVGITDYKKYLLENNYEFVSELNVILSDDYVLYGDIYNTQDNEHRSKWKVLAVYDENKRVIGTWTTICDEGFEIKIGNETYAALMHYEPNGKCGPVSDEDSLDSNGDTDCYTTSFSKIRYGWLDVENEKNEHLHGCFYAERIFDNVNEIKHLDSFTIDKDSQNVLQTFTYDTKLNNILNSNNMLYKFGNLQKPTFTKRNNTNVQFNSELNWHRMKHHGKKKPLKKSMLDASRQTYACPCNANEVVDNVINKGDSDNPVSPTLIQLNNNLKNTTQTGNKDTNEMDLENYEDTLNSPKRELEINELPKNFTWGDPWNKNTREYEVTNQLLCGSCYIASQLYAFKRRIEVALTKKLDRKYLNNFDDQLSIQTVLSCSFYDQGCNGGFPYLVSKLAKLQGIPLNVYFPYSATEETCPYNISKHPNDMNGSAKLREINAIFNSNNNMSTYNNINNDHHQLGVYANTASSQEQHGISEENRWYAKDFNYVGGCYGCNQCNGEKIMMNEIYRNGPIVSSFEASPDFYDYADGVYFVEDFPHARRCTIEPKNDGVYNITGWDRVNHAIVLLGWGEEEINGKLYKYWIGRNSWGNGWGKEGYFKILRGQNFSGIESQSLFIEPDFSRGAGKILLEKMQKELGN

SMILES	% Inhibition @ 10 uM [%]
CCCCN(C)CCCNC(=O)c1ccc2c(c1)sc1nc(-c3ccc(OCC)cc3)cn12	6.31
CCn1nc(C)c(C(=O)Nc2ccc(S(=O)(=O)Nc3nc(C)cc(C)n3)cc2)c1C	-6.05
Cc1ccnc(N2C(=O)CSC2c2ccc(Cl)cc2)c1 (stereo not shown)	0.435
CCOc1ccc(C2C=C(c3ccc(Cl)cc3)Nc3ncnn32)cc1OC (stereo not shown)	3.32
COC(=O)C1=C(C)N=C(C)/C(=C(/O)OC)C1c1ccc(OC)cc1 (stereo not shown)	-2.6
CCOc1ccc(S(=O)(=O)N2CCN(C/C=C/c3ccccc3)CC2)c2ccccc12	2.79
Oc1nc2ccccc2nc1C(F)(F)F	4.12
c1ccc(N2CCN(Cc3nnc(-c4ccc5c(c4)OCO5)o3)CC2)nc1	-0.602
COc1ccc(-c2cc(C(F)F)n3ncc(C(=O)NC45CC6CC(CC(C6)C4)C5)c3n2)cc1	-1.72
Cc1ccc(C2=CC(c3cccs3)n3ncnc3N2)cc1C (stereo not shown)	1.86
CCOC(=O)c1c(C)n(Cc2ccccc2)c2ccc(OCC(O)Cn3nc(C)cc3C)cc12 (stereo not shown)	2.56
COc1ccc(-c2nnc3c4ccccc4c(C)nn23)cc1S(=O)(=O)NCc1cccnc1	13.3
CCOCCCNC(=O)CCCc1nnc2n3nc(C)nc3c3ccccc3n12	-1.21
O=C(O)c1ccccc1-c1ccc(/C=C/c2cc(C(F)(F)F)nc(O)n2)o1	-0.833
CCn1cc(Cl)c(C(=O)Nc2sc(C(C)C)cc2C(N)=O)n1	-4.28
N#C/C(=C\c1ccncc1)c1nc2ccccc2s1	3.95
COc1ccc(C2=NC3(CCN(C(=O)OC(C)(C)C)CC3)NC2=S)cc1	-1.01
COCCN1C(=O)c2ccccc2C(C(=O)NCc2cccnc2)C1c1c[nH]c2ccccc12 (stereo not shown)	3.51
N#CCNC(=O)[C@@H]1CCCC[C@@H]1CSc1cc(Cl)cc(Cl)c1	1.7
N#CC1=C(N)OC2=C(COC/C2=C/c2cccs2)C1c1cccs1 (stereo not shown)	-2.78
N#CC1=C(N)Oc2[nH]nc(-c3ccccn3)c2C1c1cccs1 (stereo not shown)	0.983
Cc1c(C(=O)N2CCC(C)CC2)sc2nc(-c3ccc(F)cc3)cn12	-3.7
O=C(CCCN1C(=O)c2cccc3cccc(c23)C1=O)N1CCN(c2ccc(F)cc2)CC1	0.0451
CCOC(=O)NC1(C(F)(F)F)C(=O)N(Cc2ccccc2)C2=C1C(=O)CC(C)(C)C2 (stereo not shown)	3.54
Cc1ccc(C(=O)NC2CCC(NC(=O)c3ccc(C)o3)CC2)o1 (stereo not shown)	1.57

SMILES	% Inhibition @ 10 uM [%]
O=C1c2cccnc2C(=O)N1Cc1ccc(S(=O)(=O)N2CCCCCC2)cc1	-0.401
O=C(c1ccccc1)N1CCC(C(=O)N2CCN(Cc3ccccc3)CC2)CC1	1.52
O=C(c1c[nH]c2ccccc12)C1NCCS1 (stereo not shown)	3.31
Cc1ccc2nc(Cl)cc(SCC(=O)NC3CCCCC3)c2c1	-0.631
COc1ccc(N2CCN(C(=O)C(C)Sc3ccc(Cl)cc3)CC2)cc1 (stereo not shown)	3.35
CC1CN(C)C(C)C2c3ccccc3NC12 (stereo not shown)	-2.77
CCOc1ccccc1NC(=O)c1ccc(OC)cc1	-1.29
Cc1c(C2=CCN(S(=O)(=O)c3ccc(Br)cc3)CC2)c2ccccc2n1C	3.96
COc1ccc(C)cc1-n1nnc(-c2nsc(NC(=O)c3ccc(Cl)cc3)n2)c1C	0.92
CC1CCCC(C)N1CCCNC(=O)Cn1ncc2c(=O)oc3ccccc3c21 (stereo not shown)	-0.431
COC(=O)CCN1CCN(c2ccccc2Cl)CC1	-0.582
O=C1OC(c2cccc(Cl)c2Cl)=N/C1=C/c1ccc(F)cc1	-2.54
COc1ccc(/C=C(/C#N)c2nc3c(s2)CC(C)CC3)cc1 (stereo not shown)	3.06
O=C1/C(=C/C=C/c2ccccc2)C(=O)N(c2ccc(Br)cc2)C(=S)N1c1ccccc1	-2.42
CCOc1ccc(S(=O)(=O)Nc2ccc(OCc3ccccc3)cc2)cc1	4.05
CCSc1nnc(NC(=O)CSc2nnc(-c3c[nH]c4ccccc34)n2C)s1	-1.3
CC(C)(C)NC(=O)c1oc2ccccc2c1NC(=O)Cc1cccs1	-3.65
CC(NCc1cccnc1)C12CC3CC(CC(C3)C1)C2 (stereo not shown)	3.63
CC(Oc1ccccc1Cl)C(=O)N(Cc1ccco1)C1CCS(=O)(=O)C1 (stereo not shown)	-1.11
c1ccc(N2CCN(Cc3ccco3)CC2)nc1	-5.57
O=C(c1ccccc1Br)N1CCCCC1CO (stereo not shown)	1.62
O=C(CC1Sc2ccccc2NC1=O)Nc1ccc(O)cc1 (stereo not shown)	-7.4
O=C(c1cc2c(s1)-c1ccccc1S(=O)(=O)C2)N1CCN(Cc2ccccc2)CC1	-2.39
Cc1ccc(S(=O)(=O)Nc2sc3c(c2C(N)=O)CCCCCC3)cc1	10.6
